Measured values taken from PubChem BioAssay AID1963319 (National Center for Advancing Translational Sciences (NCATS), 2024).
In all, about 1,300 compounds went through this assay and about 120 (9.2%) were called active. Inconclusive means that the source gave no clear call. Such entries were picked first, then a sample of the others. Calls follow the shape of the dose curve; as a rule, active = well fitted activation curve with a large enough effect; inconclusive = small, poorly fitted or top-dose-only effect; inactive = flat fitted curve, though single readings scatter. Where the call is inconclusive, the potency comes from a doubtful curve fit.

Each compound was assayed against Luciferin 4-monooxygenase (Photinus pyralis) (UniProt P08659) (assay: Firefly luciferase (FLuc-C-HiBiT) SDR gain of signal screen - plus ATP). Details: purified FLuc-C-HiBiT + ATP, HiBiT complementation luminescence; series mostly up to 32.7 µM; activation (gain of signal): at the top concentration.
Description: PI: James Inglese Ph.D. National Center for Advancing Translational Sciences (NCATS), National Institute of Health (NIH), Maryland Discovery and optimization of novel protein-binding ligands underlies many of the methods and applications of biology, drug discovery, clinical diagnostics, and environmental toxicology. Assays for detecting the interaction of, for example, a molecule with a macromolecular target also referred to here as the target of interest (TOI) is dependent on a compatible output technology. Depending on the nature and knowledge surrounding the TOI, whether a receptor, enzyme, regulatory subunit or scaffold, or a sequence-defined nucleic acid folded into a complex tertiary structure, assay strategies can vary widely. Here we exploit ligand-biased changes in the structural dynamics of the target protein to control reporter alpha complementation allowing a non-competitive, non-functional, non-separation measure of ligand-target interaction. […] Using a chemical library of >1,200 compounds enriched for scaffolds known to be associated with the inhibition of firefly luciferase (FLuc) activity (PubChem AIDs 2309) we first illustrate and compare the Structural Dynamics Response (SDR) assay vs. the standard functional FLuc enzyme assay (2). Secondly, we show the specificity and sensitivity of the SDR for the Abelson tyrosine kinase (ABL1) compared to the serine/threonine protein kinase A, using an enriched chemical library of 128 compounds selected, in part, for activity annotated with ABL1 kinase activity using the Pharos database (3). References: (1) A. S. Dixon et al., NanoLuc Complementation Reporter Optimized for Accurate Measurement of Protein Interactions in Cells. ACS Chem Biol 11, 400-408 (2016). […] Chemistry & Biology, 19, 1060 - 1072 (2012). (3) K. J. Kelleher et al., Pharos 2023: an integrated resource for the understudied human proteome. Nucleic Acids Res 51, D1405-D1416 (2023).
1. Reagent. Dispense 4 uL FLuc-C-HiBiT enzyme-buffer solution per well at a final enzyme concentration of 10 nM with or without 10 uM ATP into columns 2-48 of white, solid bottom medium bind 1536-well plates (Greiner Bio-One) by BioRaptr 2. Dispense respective buffer without enzyme at 4 uL/well in column 1 of assay plates. 2. Compounds. Library compounds and PTC124 control added at 23 nL per well, transfer by Pin Tool. 3. Incubation. Incubate enzyme and compounds at room temperature for >30 min, protect from light. 4. Reagent. (SDR assay) Add 3 uL/well of Nano-Glo HiBiT reagent (Promega) to assay plates for SDR assay with ATP. 5. Incubation. Incubate enzyme and substrate or detection reagent at room temperature for 5-10 min, protect from light. 6. Detector. HiBiT SDR assay measured using CCD-based camera (ViewLux) with settings as follows: Exposure, 1 sec; Gain, High; Speed, Slow; Binning, 2X. REFERENCES: Inglese J, Shamu CE and Guy RK, Reporting data from high throughput screening of small molecule libraries, Nature Chemical Biology, 2007, 3(8): 438-441. doi.org/10.1038/nchembio0807-438.
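Also: signal reports ligand binding via conformational change of the enzyme rather than luciferase catalysis; nearly all actives have a fitted effect of over 55% in size.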
For activation (gain of signal) in this document: % of control where 0% means no effect.
Potency is read from the fitted curve at half-maximal effect; tags tell the direction and shape of the fitted curve.

Sequence of UniProt P08659 (P08659 whole entry, looked up): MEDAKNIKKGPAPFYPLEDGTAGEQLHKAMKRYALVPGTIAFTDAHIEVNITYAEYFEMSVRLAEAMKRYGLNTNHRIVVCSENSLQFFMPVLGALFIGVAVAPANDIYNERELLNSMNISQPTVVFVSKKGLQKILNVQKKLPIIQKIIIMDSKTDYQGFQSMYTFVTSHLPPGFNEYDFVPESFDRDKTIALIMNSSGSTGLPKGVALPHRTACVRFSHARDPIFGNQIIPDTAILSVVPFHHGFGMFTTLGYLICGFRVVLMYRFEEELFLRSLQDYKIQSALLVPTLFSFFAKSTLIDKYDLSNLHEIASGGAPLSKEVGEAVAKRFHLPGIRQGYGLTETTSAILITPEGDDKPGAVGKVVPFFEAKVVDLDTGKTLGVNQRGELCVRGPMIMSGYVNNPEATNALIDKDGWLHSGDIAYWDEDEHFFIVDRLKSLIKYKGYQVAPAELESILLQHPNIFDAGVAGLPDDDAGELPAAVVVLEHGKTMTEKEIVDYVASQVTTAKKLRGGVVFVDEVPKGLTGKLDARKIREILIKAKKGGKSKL

Structure (SMILES) | activation (gain of signal) | Potency
Cc1nccn1CCN(C)c1ccc(-c2nc(COc3ccccc3)no2)cn1 | inactive: 18.3% | 
COc1ccc(/C=C/c2ccc3c(c2)C(=O)N2CC[C@H](NC(=O)COCC(=O)O)[C@H]2C(=O)N3)cc1 |  | inconclusive: 12.4 µM [activator, partial curve, poor fit]
O=C1Cc2c(-c3cccc4ccccc34)n[nH]c2CN1CCOc1ccccc1 | inactive: 10.2% [at 49.3 µM] | 
COc1ccc(NC(=O)Nc2ccc(C)n(CC(=O)N3CCCCCC3)c2=O)cc1 |  | inconclusive: 14 µM [activator, partial curve, poor fit]
COc1ccc(-c2cc3c(=O)n(CCNC(=O)c4c(F)cccc4F)ccn3n2)cc1 |  | inconclusive: 12.4 µM [activator, partial curve, poor fit]
CCOC1CCCN(c2ncnc3c2cnn3-c2ccccc2)C1 (configuration not stated) |  | inconclusive: 12.4 µM [activator, partial curve, poor fit]
C[C@H](C(=O)N1CCCC1)C1CC[C@@]2(C)Cc3sc(-c4ccccc4)nc3[C@@H](C)[C@@H]2[C@H]1O (some centres not stated) |  | active: 2.21 µM
CC(=O)N[C@@H]1C=C[C@@H](c2c(C)nn(-c3ccc(C(F)(F)F)cc3)c2C)C1 |  | inconclusive: 20.2 µM [activator, partial curve, poor fit]
O=C(O)c1cccc(-c2noc(-c3cccc(C(F)(F)F)c3)n2)c1 |  | active: 0.0394 µM
Cc1ccc(NC(=O)N2CCC(CCNC(=O)C3CC3)CC2)cc1F |  | inconclusive: 15.7 µM [activator, partial curve]
O=C(N[C@H]1CCN2C(=O)c3cc(/C=C/c4ccc(O)cc4)ccc3NC(=O)[C@H]12)c1cnccn1 | inactive: 8.36% | 
Cc1ccc(NC(=O)c2oc3ccc4c(c3c2C)C(=O)CC(C)(C)O4)c(C)c1 |  | inconclusive: 14 µM [activator, partial curve, poor fit]
Cc1ccc(C(=O)Nc2ccc3oc(-c4ccccc4C)nc3c2)cc1 | inactive: 8.52% | 
Cc1ccc(NC(=O)c2ccc3snnc3c2)cc1C |  | inconclusive: 5.56 µM [activator, partial curve, poor fit]
Cc1ncccc1C(=O)N1CCC(Oc2ccc(-c3noc(-c4ccccc4)n3)cc2)C1 (configuration not stated) | inactive: 13.2% | 
CN1Cc2ccc(C(=O)NCCOc3ccccc3)cc2OCC1=O |  | inconclusive: 9.04 µM [activator, partial curve, poor fit]
Cc1ccc(Cl)cc1-n1nnc(-c2nsc(NC(=O)c3ccccc3Cl)n2)c1C | inactive: 8.66% | 
CCNC(=O)N[C@@H]1C=C[C@@H](c2c(C)nn(-c3ccc(C(C)C)cc3)c2C)C1 |  | inconclusive: 5.08 µM [activator, partial curve]
COCCNc1ncc(-c2cccc(NC(C)=O)c2)c2c1OCC2 |  | inconclusive: 20.2 µM [activator, partial curve, poor fit]
O=C(NCc1ccco1)Nc1cccc(-c2ccc(N3CCCC3)nn2)c1 |  | inconclusive: 6.24 µM [activator, partial curve, poor fit]
COc1ccccc1C(=O)Nc1ccc(-c2nc3ccccc3s2)c(C)c1 | inactive: 14.4% | 

Structure (SMILES) | activation (gain of signal) | Potency
CCNC(=O)C1C(c2cccc(NC(=O)c3ccc(C)cc3)c2)OC(=O)N1Cc1ccc(F)cc1 (configuration not stated) |  | active: 1.57 µM
O=C(Nc1cccc(F)c1)Nc1ccc2n(c1=O)C[C@H]1C[C@@H]2CN(C(=O)c2ccc(F)cc2)C1 | inactive: 10.1% | 
c1ccc(-n2ncc3c(N4CCCCC4)ncnc32)cc1 |  | inconclusive: 2.21 µM [activator, full curve]
Cc1ccc(OCC(=O)Nc2cccc(C(=O)OCc3cc(=O)n4nc(C)sc4n3)c2)cc1 |  | inconclusive: 12.4 µM [activator, partial curve]
Cc1ccc(-n2ncc3c(NC4CCCCC4)ncnc32)cc1Cl |  | inconclusive: 1.76 µM [activator, full curve, poor fit]
CC(=O)Nc1ccc(NC(=O)c2cc(-c3ccc4c(c3)OCCO4)on2)cc1 |  | inconclusive: 1.57 µM [activator, full curve]
COc1ccccc1NC(=O)Nc1cccc(-c2ccc(N3CCOCC3)nn2)c1 |  | inconclusive: 14 µM [activator, partial curve, poor fit]
COc1ccc(C(=O)NCCn2cccc2-c2nc(-c3ccccc3)no2)cc1 |  | inconclusive: 8.81 µM [activator, partial curve, poor fit]
COc1ccc(-c2cc3c(=O)n(CCNC(=O)c4ccco4)ccn3n2)cc1 |  | inconclusive: 12.4 µM [activator, partial curve, poor fit]
O=C(c1ccncc1)N1CCC(Oc2ccc(-c3noc(-c4ccccc4)n3)cc2)C1 (configuration not stated) | inactive: 13.8% | 
O=C(NCC(F)(F)F)C1CCCN1c1nc2ncccc2o1 (configuration not stated) | inactive: 7.07% [at 49.3 µM] | 
C[C@@H]1CN(c2nc(-c3ccccc3)no2)CC[C@@]1(O)C1CCC1 |  | inconclusive: 4.42 µM [activator, partial curve]
O=C(Nc1onc2c1CCCC2)c1ccccc1 |  | inconclusive: 11.1 µM [activator, partial curve]
CC(C)n1cnnc1CC1CCN(C(=O)Nc2ccc3c(c2)OCCO3)CC1 |  | inconclusive: 12.4 µM [activator, partial curve, poor fit]
O=C1OCCN1CCNc1ccc(-c2nc(-c3ccccc3F)no2)cn1 | inactive: 18.7% | 
Cc1ccc(-n2nc(C)c([C@H]3C=C[C@@H](OC(=O)Nc4cccc(C(F)(F)F)c4)C3)c2C)cc1Cl | inactive: 12.5% | 
Cc1ccc2nc(-c3ccc(NC(=O)COc4ccc(Br)cc4Br)cc3)sc2c1 |  | inconclusive: 15.7 µM [activator, partial curve]
CCc1ccc(-n2nc(CO)c(C(=O)NC)n2)cc1 | inactive: 18.9% | 
Cc1cc(-c2cc3c(cn2)CN(Cc2cnc[nH]2)CCN3)ccn1 | inactive: 19% [at 49.3 µM] | 
CCc1ccc(NC(=O)C2CCN(C(=O)c3ncn4c3COC(c3ccccc3)C4)CC2)cc1 (configuration not stated) |  | inconclusive: 3.51 µM [activator, full curve]
COc1ccc(-c2noc(Nc3ccccc3)n2)cc1 |  | inconclusive: 5.56 µM [activator, partial curve, poor fit]
